# Data from PubChem BioAssay (NCATS).
# The inconclusive results got no clear call from the source; some entries with a clear call stand among them for comparison. Potencies of inconclusive entries are left out as doubtful fits. Calls of active or inactive are those of the source. Calls follow the shape of the dose curve; as a rule, active = well fitted inhibition curve with a large enough effect; inconclusive = small, poorly fitted or top-dose-only effect; inactive = flat fitted curve, though single readings scatter.
# Molecular target: Aldehyde dehydrogenase, mitochondrial (Homo sapiens) (UniProt P05091)
# Experiment: qHTS for Inhibitors of the Aldehyde Dehydrogenase Family (ALDH2) Primary screen (AID 2061308); also: nearly all actives have a fitted effect of over 55% in size
# Settings: ALDH2 enzyme inhibition qHTS, 1536-well; series mostly up to 56 µM
# Potency is read from the fitted curve at half-maximal effect; tags tell the direction and shape of the fitted curve.
row,SMILES,Potency
1,Oc1ccc(CNc2ccc(F)cc2Cl)c2cccnc12,"inconclusive [inhibitor, partial curve, poor fit]"
2,C/C(=C\CCC1(C)C2CCC(C2)C1(C)O)C(=O)O (stereo not given),"inconclusive [inhibitor, partial curve, poor fit]"
3,C/C=C(\C)C(=O)OC1C2(O)CC3=C4CC(=O)OC(c5ccoc5)C4(C)CCC3C(C)(C2=O)C(C(OC(C)=O)C(=O)OC)C1(C)C (stereo not given),inactive
4,Cc1ccccc1NC(=O)CN1C(=O)N/C(=C\c2cn(-c3cccc(C(=O)O)c3)cn2)C1=O,"inconclusive [inhibitor, partial curve, poor fit]"
5,Cc1cnc(NC(=O)Nc2cc(Br)c(C)cc2OCC2CNCCO2)cn1 (stereo not given),inactive
6,COc1cccc(CNc2ccc(S(=O)(=O)Nc3ccc(N4CCNCC4)cc3)cc2)c1O,inactive
7,O=C(Cc1ccc(Cl)c(Cl)c1)Nc1ccc(S(=O)(=O)Nc2cncnc2)cc1,"inconclusive [inhibitor, partial curve, poor fit]"
8,CC(C)(O)c1ccn2c(-c3ccc(F)c(-c4ccc(F)cc4C#N)c3)cnc2c1F,inactive
9,CC(CCc1ccccc1)NCC(O)c1ccc(O)c(C(N)=O)c1 (stereo not given),"inconclusive [inhibitor, single point]"
10,Cc1noc(-c2ccc(-c3ccc(CC(=O)O)cc3)cc2)c1NC(=O)O[C@H](C)c1ccccc1Cl,inactive
11,COc1ccccc1-c1csc2ncnc(Sc3nnnn3C)c12,inactive
12,Cc1cc(C)nc(NC(=S)N2CCN(c3cc(C(F)(F)F)nc4ccc(C(F)(F)F)cc34)CC2)c1,"inconclusive [inhibitor, single point]"
13,CCc1ccc(-c2nc(CSCC(=O)NCCc3ccccc3)c(C)o2)cc1,inactive
14,C/C=C/C1OC2=C(C(=O)OC2(C)O)C(O)C1O (stereo not given),inactive
15,Cc1ccc(NS(=O)(=O)c2cc3c(cc2-c2ccsc2)NC(=O)CO3)cc1C,"inconclusive [inhibitor, partial curve]"
16,Cc1cc(S(=O)(=O)Nc2cnccc2C(=O)Nc2nc(-c3ccccc3)cs2)c(C)o1,inactive
17,COC(=O)C1=C(C)NC(C)=C(C(=O)O[C@@H]2CCCN(Cc3ccccc3)C2)[C@@H]1c1cccc([N+](=O)[O-])c1,"inconclusive [inhibitor, partial curve, poor fit]"
18,C=C(COC(=O)CC(C)C)C1Cc2cc(C(C)=O)ccc2O1 (stereo not given),"inconclusive [inhibitor, single point]"
19,O=C(NCc1nnc(C(=O)Nc2ccc(C(F)(F)F)cc2Cl)o1)c1ccccc1,"inconclusive [inhibitor, full curve]"
20,CCN(CC)CCCCn1c(-c2ccccc2)nc2c(NCCOC)nc(C)nc21,inactive
21,CC(=O)O[C@@H]1C[C@@]2(C)C(CC[C@]3(C)C2CC=C2C4CC(C)(C)CC[C@]4(C(=O)O)CC[C@]23C)C(C)(C)[C@H]1O (stereo not given in full),inactive
22,Cc1ccc(S(=O)(=O)Nc2cnccc2C(=O)NCc2ccccc2)cc1,inactive
23,CN(C)c1ccc(C(=O)OCC#CCSc2nnc(-c3cccc4ccccc34)o2)cc1,"inconclusive [inhibitor, single point]"
24,CC1=C2C[C@@]3(C)[C@@H](CCC[C@@H]3C)C[C@@]2(O)OC1=O,inactive
25,COc1cc2ncnc(Nc3ccc(F)c(Cl)c3)c2cc1O,inactive
26,CSC(Cc1ccc(Cl)cc1)C(=O)Nc1ccc(Cl)cc1C(=O)O (stereo not given),"inconclusive [inhibitor, partial curve, poor fit]"
27,CC(=O)O[C@@H]1[C@@H](O)[C@H](C)O[C@@H](O[C@H]2[C@@H]3C=CO[C@@H](O[C@@H]4O[C@H](CO)[C@@H](O)[C@H](O)[C@H]4OC(C)=O)[C@@H]3[C@@]3(CO)O[C@@H]23)[C@@H]1OC(=O)/C=C/c1ccc(O)cc1,inactive
28,C=CC(C)(O)CO[C@@H]1O[C@H](CO)[C@@H](O)[C@H](O)[C@H]1O (stereo not given in full),inactive
29,O=C(O)c1ccc(-c2ccc(NC(=O)c3cccs3)cn2)cc1,"inconclusive [inhibitor, partial curve, poor fit]"
30,Cc1ccc(C#Cc2cc(-c3nn(-c4nc(C(=O)O)cs4)c(CC4CC4)c3Cc3ccc(S(N)(=O)=O)c(F)c3)ccc2F)o1,"inconclusive [inhibitor, single point]"
